Data from the RNAGym collection of RNA variant scans (doi:10.7554/elife.90254).
Read counts are not given, so values of variants with three or more changes are uncertain.

B1: LINE1-mini (parent)
chain: GGCAGAGCUCAACACAGCGUGGCAAAGUGGCUGUGGCUAGACUGCC

Variants of: B1
Assay: self-cleavage, relative activity (ratio to wild type); higher = more cleavage; in vitro, sequencing; the parent is a self-cleaving ribozyme

Variant | self-cleavage
CGCAGAGCUCAACACAGCGUGGCAAUGUGGCUGUGGCAAGACUGCC [G1C A26U U38A] | 0.03
CGCAGAGCUCAACACAGCGUGGCAAAGUGGCUGUGGCUAGUCUGUC [G1C A41U C45U] | 0.03
CGAAGAGCUCAACAUAGCGUGGCAAAGUGGCUGUGGCUAGACUUCC [G1C C3A C15U G44U] | 0
CGAAGAUCUCAAAUGAGCGUGGCAAACUGGCUGUGGCUAGACUUGC [G1C C3A G7U C13A A14U C15G G27C G44U C45G] | 0.16
CGGAGAGCUCAACACAGCGUGGCACAGCGGCUGUGGCUAGACUGCC [G1C C3G A25C U28C] | 0.09
CGGAGACCUAAACACAGCGUGGCAAAGUGGCUGUGGCUGGACUGCC [G1C C3G G7C C10A A39G] | 0.02
CGUAGAGCUCCACACAGCGUGGCAAAGUGGCUGCGGCUAGACUGCC [G1C C3U A11C U34C] | 0.02
CGUAGAGCUCAACUCAGCGUGGCAAAGUGGCUGUGGCUAGACUGCC [G1C C3U A14U] | 0.1
CGUAGAGCUCAACACAGCGUGGCAAAGUGGCUGUGGUUAGACUGCC [G1C C3U C37U] | 0.2
CGUACAGCUCAACACAGCGUGGCAAAGUGGCUGUGGCUAGACUGCC [G1C C3U G5C] | 0.07
CGUAGAGCUCAACACAGCGUGGCAAAUUGGCUGUGGCUAGACUGCC [G1C C3U G27U] | 0.16
CGUAGAGCUCAACACAGCGUGGCAAAGUGGCUGUGGCUACACUGCC [G1C C3U G40C] | 0.03
CGUAGAGCUCAACACAGCGUGGCAAAGUGGCAGUGGCUAGACUGCC [G1C C3U U32A] | 0.04
CGCAGAGAUCGACACAGCGUGGCAAAGUGGCUGUGGCUAUACUGCC [G1C C8A A11G G40U] | 0
CGCAGAGAUCAUCACAGAGUUGCAAAGUGGCUGUGGCUAGCCUGCC [G1C C8A A12U C18A G21U A41C] | 0.02
CGCAGAGAUAAACACAGCGUGGCAAAGUGGCUGUGGCUAGACUGCC [G1C C8A C10A] | 0
CGCAGAGAUCAACACACUGUGGCAAAGUGGCUAUGGCAACACGGCC [G1C C8A G17C C18U G33A U38A G40C U43G] | 0.01
CGCAGAGAUCAACACAGCGCGGCAAAGUGGCUGUGGCUGGACUGCC [G1C C8A U20C A39G] | 0
CGCAGAGGUCAACACAGAGUGGCAAAGUGGCUGUGGCUACCCUGCC [G1C C8G C18A G40C A41C] | 0.02

Variant | self-cleavage
CGCAGAGGUCAACACAGCGUGGCAAAGUGGCUGUGGCUAGACUACC [G1C C8G G44A] | 0.03
CGCAGAGUUCAACACCGCUUGUCAAAGUGGCUGUGGCUAGACUGCC [G1C C8U A16C G19U G22U] | 0.16
CGCAGAGUUCAACAGAGCGUGGCAAAGUGGCUGCGGCUAGACUACC [G1C C8U C15G U34C G44A] | 0.2
CGCAGAGUUCAACACAGGGUGGCAAAGUGGCUGUGGCUAGAAUGCC [G1C C8U C18G C42A] | 0
CGCAGAGUUCAACACAGCGUGGCAAAGUGGCUGUGGCUACACUGCC [G1C C8U G40C] | 0.01
CGCAGAGCUAAACUCAGCGUGGAAAAGUGGCUGUGGCUAGACUGCC [G1C C10A A14U C23A] | 0
CGCAGAGCUAAAUACAGCGUGGCAAAGUGACUGUGGCUAGACUGCC [G1C C10A C13U G30A] | 0.02
CGCAGAGCUAAACACAGCGUGGCAAAGUGGCUGUGGGUAGACUGCC [G1C C10A C37G] | 0.01
CGCAGAGCUAAACACAGCAUGUCAAAGUGGCUGUGGCUAGACUGCC [G1C C10A G19A G22U] | 0.01
CGCAGAGCUAAACACAGCGUGGCAAAGUGGCUAUGGCUCGACUGCC [G1C C10A G33A A39C] | 0.01
CGCAGAGCUAAACACAGCGUGGCAAAGUGGCUGUCGCUAGACUGCC [G1C C10A G35C] | 0
CGCAGAGCUGUACACAGCGUGGCAAAGUGGCUGUGGCUAGACUGCA [G1C C10G A11U C46A] | 0.02
CGCAGAGCUGACAACAGCGUAGCAAAGUGGCUGUGGCUAGACUGCC [G1C C10G A12C C13A G21A] | 0.01
CGCAGAGCUGAACACGGCAUGGCAAGGUGGCUGUGGCUAGACUGCC [G1C C10G A16G G19A A26G] | 0.02
CGCAGAGCUGAACACAGCGUGGCAAAGUGGCUGUGGCUGGACUGCC [G1C C10G A39G] | 0
CGCAGAGCUGAACACAGCGUGGCAAAGUUGCUGUGGCUAGAAUGCC [G1C C10G G29U C42A] | 0.01
CGCAGAGCUUAACACUGCGUGGCAAAGUGGCUGUGGCUAAACUGCC [G1C C10U A16U G40A] | 0.02
CGCAGAGCUUAACACAGCGUGGCCAAGUGGCUGUGGCUAGACUGCC [G1C C10U A24C] | 0.05
CGCAGAGCUUAACACAGCGUGGCACAAUGGCUGUGGCUAGUCUGAC [G1C C10U A25C G27A A41U C45A] | 0.01

Variant | self-cleavage
CGCAGAGCUUAAAACAGCGUGGCAAAGUGGCUGUGGCUAGACUGCC [G1C C10U C13A] | 0.01
CGCAGAGCUUAACACAGCGUGGCAAAGUUGCUGUGGCUAGACUGCC [G1C C10U G29U] | 0.04
CGCAGAGCUCAAAACAGCGUGGCAAAGCGGCGGUGGCUAGACUGCC [G1C C13A U28C U32G] | 0.07
CGCAGAGCUCAAGGCAGAGUGGCAAAGUGUCUGUGGCUAGACUGGC [G1C C13G A14G C18A G30U C45G] | 0
CGCAGAGCUCAAGACAGUGUGGCAAAGUGGCCGUGGCUAGGGUGCC [G1C C13G C18U U32C A41G C42G] | 0
CGCAGAGCUCAAGACAGCGUGGCAAAGUGGCUGGGGCUAGAGUGCC [G1C C13G U34G C42G] | 0
CGCAGAGCUCAAUACAGCGUCCCAAAGUGGCUGUGGCUAGACUGCC [G1C C13U G21C G22C] | 0.03
CGCAGAGCUCAAUACAGCGUGGCAAAGUGGCUGUGGCAAGACUGCC [G1C C13U U38A] | 0.1
CGCAGAGCUCAACAAAGCGUGGCCAGGUGGCUGUGCCUAGACUGCU [G1C C15A A24C A26G G36C C46U] | 0.01
CGCAGAGCUCAACAAAGCGUGGCAUAGUGGCUGUGGCUCUACUGCC [G1C C15A A25U A39C G40U] | 0.01
CGCAGAGCUCAACAAAGCGUGGGAAAGUGGCUGUGGCUACACUGCC [G1C C15A C23G G40C] | 0.02
CGCAGAGCUCAACAAAGCGUGGCAAAGUGGCUGUGGCUAGAUAGCC [G1C C15A C42U U43A] | 0.01
CGCAGAGCUCAACAAAACGUGGCAAAGUGGCUGUGGCUAGACUGCC [G1C C15A G17A] | 0.01
CGCAGAGCUCAACAGAGCGUGGCAAAGUGGCUGUGGAUAGACUGCC [G1C C15G C37A] | 0.02
CGCAGAGCUCAACAGAGCGUGGCAAAGUGGCUGUGGCUAGAUGGCC [G1C C15G C42U U43G] | 0
CGCAGAGCUCAACAGAGCGUGGCAAAGUUGCUGUGGCUAGACUGCC [G1C C15G G29U] | 0.01
CGCAGAGCUCAACAGAGCGUGGCAAAGUUGCUGUGGCUAGGCUGCC [G1C C15G G29U A41G] | 0.01
CGCAGAGCUCAACACAGGGUGGCAAACUGGCUGUGGCUAGACUGCC [G1C C18G G27C] | 0.1
